This is one part of the list.
Each sequence was assayed on PF3D7_0420300 AP2 domain 1 (GST-tagged) (assay: gcPBM binding intensity (ln(normalized median fluorescence intensity)); higher = stronger DNA binding).
How it was run: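 Binding intensity is the highest Masliner-normalised natural-log median intensity over replicate spots in either probe orientation. To obtain it, GST-tagged P. falciparum DNA-binding domains made in E. coli were incubated for 1 h on an Agilent 4 × 180k array of primer-extended double-stranded 36-bp intergenic genomic probes plus negative controls. Detection used Alexa488 anti-GST antibody with scanning at 488 nm.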

Row | Sequence | gcPBM binding intensity (ln)
1 | ATATATATATTTACATGTACACATCTATATATAAAC [XGTACX_site5581] | 9.36
2 | TTTTTTTTTCATTATTGTACATTGAAACTTCATTTT [XGTACX_site6041] | 9.18
3 | AAAAAAAACGAACACACACACAAATATGTAAAAATA [CACACA_site6673] | 10.1
4 | CACACAATGGCTAGCTGTACATAATATATATCTACA [XGTACX_site4691] | 9.32
5 | TAAAAACAAAAATGTTGTACATAATATAAAACAATT [XGTACX_site6380] | 9.3
6 | TATATAAATATACAAACACACATACAAACATATATA [CACACA_site4754] | 9.9
7 | GAAAATAAAATAAATGCATGTAAATTTAATGTAATG [TGCATGCA_site996] | 9.4
8 | ATATATATATCATATTGTACATACTTGTATTTATAT [XGTACX_site2432] | 9.35
9 | GTGGACGAAATAGTTGTAAATTTATGTGCAAACCTC [XGTACX_negctrl_site564] | 9.28
10 | TCCTTACCTATTAAAGCATGCTCGAATATATATTTT [TGCATGCA_site53] | 9.36
11 | TATATTAAATATTACACACATACATTTAGTGTCAAA [CACACA_site1990] | 9.35
12 | TGGGAGCACAGACACACACACACACCGATATATATA [CACACA_site8001] | 10.2
13 | AACAAAATAAATGTATGTACATATATATATATATAT [XGTACX_site7974] | 9.29
14 | AATGAATATAGTACTGAATGTAATTTAAGGTTTTCC [CACACA_negctrl_site1548] | 9.28
15 | GCATAAATCAAACACACACACATATATATATATATA [CACACA_site2422] | 9.78
16 | TATAATGGATGCTAGCTGCACTAATAAGCAAAAATA | 9.12
17 | GATGATATATATTAGCGTACATGTATATATACCATT [XGTACX_site6404] | 9.32
18 | AAAATTTCAAATAACACACACTAATATATATCTGTA [CACACA_site4904] | 9.66
19 | TAAATGAGAAGGACTGCACACTAAAATGGAAGGAGA [CACACA_site8449] | 9.71
20 | TATTTGTATATATGTGTGCACGTATAATCCATTAAA [GTGCAC_site9569] | 9.32
21 | TATGGTAACATATGCTGTACAATATAATATGTTTAA [XGTACX_site1601] | 9.11
22 | AAAAAAAAAAGGTGTACATGCAAAATAAATTCTTAA [TGCATGCA_site556] | 9.43
23 | AAATTATAAATACCTACACACTTATCAAAATAAATT [CACACA_site5280] | 9.56

Row | Sequence | gcPBM binding intensity (ln)
24 | TAAACATAAATATACACACAAACATATATGTATTTT [CACACA_site1214] | 9.73
25 | AATATTTTTTTATAAACACACATATATATAAATATA [CACACA_site3524] | 9.17
26 | TATATAAATATAATATGTACATATAATATGTATATA [XGTACX_site8120] | 9.04
27 | TAATAATTTATATATGCATGTCAAAATAATATTAAA [TGCATGCA_site12] | 9.09
28 | TATATATTTTTATGTGTGCACTGTTTCATAAAAGAA | 9.2
29 | ACTTATAAAATAACATGTACAAATATTTATTATATA [XGTACX_site133] | 9.05
30 | AAAATAACGAGTCAAACACACATATTTATATTTATA [CACACA_site7050] | 9.49
31 | TAATATAACTACATAACACACGAAAATATATGAATC [CACACA_site3628] | 9.96
32 | GTTATAAATGCATATACACACATACGTACATACATA [CACACA_site7655] | 9.69
33 | TCATTAATCAGGTATGCATGCATAACTATTAAAAAT [TGCATGCA_site90] | 9.02
34 | TCTTTTTTTTTTATTTGTACTTATTTTTTTCAAAAA [XGTACX_site3403] | 9.21
35 | TTATATGAAAAAATATGTACGTATAATGAGAAATAT [XGTACX_site8987] | 9.56
36 | AAATAGATAAACTAAACACACAAAAAAAAAAAAAAT [CACACA_site1179] | 9.84
37 | AGAAAAAATAAAAATAGTACTCAAAAAATTATGAAT [XGTACX_site4908] | 9.33
38 | AATGGTACATGATACACACACGCACATATATATATT [CACACA_site3425] | 9.89
39 | ATGTAGATATATATATGTACTAATTAGTAGTTTACG [XGTACX_site6275] | 9.33
40 | ACATAAATAATAAAAACACACATATGTACAGATATA [CACACA_site5112] | 9.81
41 | AGAAAAAAAAAACACACACACACACCCTCAATATAA [CACACA_site39] | 10.1
42 | ATATTAAAAAGAAGTGTGCGCAAAACATTAACTTGA | 9.64
43 | ATTTATATATTGCCCACACACATGTGATTATTTATA [CACACA_site1714] | 9.81
44 | AATGGATGGTCCAAATGTACATATATATATATATAT [XGTACX_site4800] | 9.21
45 | TAAATAAACCTGACTTGTACATGTAAAATAAATATA [XGTACX_site1667] | 9.4
46 | AATAATAATATATGTAGTACACATTTCCATTATGTT [XGTACX_site3708] | 9.37

Row | Sequence | gcPBM binding intensity (ln)
47 | AAAAAAAAAAAAAAAACACACATTTCTTTTTCATAT [CACACA_site11] | 9.38
48 | TTAATTATATATAAAAGTACTTATTTTTCCATATAA [XGTACX_site3033] | 8.8
49 | TAATAGGAAATTATAGGTACACATACAAATAAATAA [XGTACX_site3587] | 9.43
50 | TTGCAAATATATGGTTGTACTCAAAAAAAAAAAAAA [XGTACX_site6975] | 8.87
51 | TTTGTAGATTTTGTAACACACACATATATATACATA [CACACA_site8757] | 9.63
52 | TATGCACCCAGACACACACACACAACTAAAAAATAA [CACACA_site2567] | 9.96
53 | TACCATTATTTTAAGTGTACATACTAATTTATATAT [XGTACX_site6548] | 9.34
54 | AAAATATAATATATTGCACACAAAAAGTGAATTATT [CACACA_site8489] | 9.47
55 | TCTTTCTATTTATAATGTACTCAAAATTATTCTATA [XGTACX_site4867] | 9.01
56 | AAATTGTGTGAAATATATTAATATTATTATTATTAT [TGCATGCA_negctrl_site189] | 9.19
57 | CCTTGCATTTATTATACACACACAAAAAAATATATA [CACACA_site7964] | 9.68
58 | TTTTACCACTAAAAATGTACAAAAAAAAAAAAAAAA [XGTACX_site4226] | 8.59
59 | ATGCGTATACTAAGAACACACAAGTTACTTGGTGTT [CACACA_site1625] | 9.26
60 | ATTAATGATTTTTGTTGTACATTATTAATTTACATT [XGTACX_site544] | 9.47
61 | CATACATACATACATACACACATACATATGTATTTA [CACACA_site5384] | 9.64
62 | TATTTTATATTTCATTTGTTATTTTTCTTGGTTCTA [CACACA_negctrl_site33] | 9.49
63 | CAACACTTTCAAAAATGTACGTACAAATGTATTTTA [XGTACX_site6713] | 8.98
64 | ACAAAATAAAGACACACACACAAACACAAAAAAATA [CACACA_site7568] | 10.2
65 | AGTTTCCATATGAGGTGTACATATATAATTTATTAT [XGTACX_site2369] | 9.44
66 | CAAAAATAACGAGTCAAACACACATATATATATATA [CACACA_site2038] | 9.41
67 | AAAGGGATAACACCAAAAAAAATAAAAATAAAAATA [GTGCAC_negctrl_site680] | 9.24
68 | TCAAGAATTTTAAAGAGTACATAAAACAATAATATA [XGTACX_site3923] | 9.18
69 | AATGTAATATAAATATGTACATATAAACTATATATA [XGTACX_site6871] | 9.35

Row | Sequence | gcPBM binding intensity (ln)
70 | ATTATATATATATATATATATATATATATATTATAT [CACACA_negctrl_site234] | 8.89
71 | ACTTATGATTTATTTTGTACATATATACTATTCCTG [XGTACX_site5275] | 9.65
72 | GTTTTAAAACAAATATGTACACATAATATAGGAAAG [XGTACX_site1803] | 9.23
73 | GCTCCTTTTACCATCGCACACGATAAAAAAAAATAA [CACACA_site3255] | 9.35
74 | ACAAATACTAACAACGCATGTAAGCCTACAATAAAT [TGCATGCA_site551] | 9.52
75 | TTTTTTTTCTAAATTATATGAAAATATATGTTATGT [GTGCAC_negctrl_site85] | 9.09
76 | TACATAAACATTTATACACACATTATAAATACATAT [CACACA_site4386] | 9.73
77 | ATTTTCTATTTTATTTGTACGTAATTTAATTTTTTT [XGTACX_site3609] | 9.59
78 | ACAATTTTAAAATGAACACACATGTTTTTCTTACTT [CACACA_site1014] | 9.42
79 | AAGTAATTTGTTGACACACACACACGCATACCTATA [CACACA_site7140] | 10.2
80 | TCCCAATTTCTATCCTGTACAGACATAAATATATAC [XGTACX_site5937] | 9.34
81 | ATAAATCCATGTAACTGTACTTTTTTTTTTTTTTTT [XGTACX_site7373] | 9.33
82 | TTTTGAAATTTTTGTGTTTTTCCTTTTTATTTTATA [CACACA_negctrl_site1740] | 9.46
83 | ATAAAGATTAATAAAATAAAATTCCGCAAACATATA [CACACA_negctrl_site244] | 9.33
84 | AGATAGCTATTAAAAAGTACAAAAAAATATATATAT [XGTACX_site6289] | 9.37
85 | ATAAATACAGATATTACACACTTCTTATTCTAAGAA [CACACA_site5640] | 9.24
86 | TATACAGGAATATTTTTACACACTAATAATTATAAA [CACACA_site8477] | 9.35
87 | TATTTACAACAAATTTAATTATTTTTAACTTATAAA [GTGCAC_negctrl_site259] | 8.8
88 | TATTTTATATAAAGGTGTACTTATACAAAAATATAT [XGTACX_site7435] | 9.07
89 | TTTTTTCAAATTATTCGATATGTAAAAAAATAAAAT [GTGCAC_negctrl_site241] | 8.83

— the supplement of paper PMC11417369
